# Data taken from patent US20260286396A1, “AXL KNOCK OUT CAR T CELLS AND METHODS FOR USE THEREOF” (priority 2023, published 2026).
# Tests used:
# CART19 cells [1] = assay: Cytokine analysis (38-multiplex) of CART19/JeKo-1 co-culture supernatant
# monocytes = assay: Cytokine analysis of monocyte/TP-0903 co-culture supernatant; conditions: supernatant at 72 hours, low doses of TP-0903
# [2] = system: JNK, p38, GATA-3, T-bet, LCK; assay: Western blot analysis of downstream signaling in CART19 cells; conditions: 10-30 nM TP-0903, 24 hours
# CD19+ JeKo-1 cells = assay: TP-0903 cytotoxicity (in vitro killing) assay against JeKo-1; type: cell-based, human; conditions: 65 nM TP-0903, 48 hours, luciferase+ JeKo-1
# Protocol: FIGS. 5A-5D are graphs plotting the results of cytotoxicity assays. […] At 48 hours, cell killing was assessed by luminescence relative to controls. ****p<0.0001, one-way ANOVA. […] CART19 were co-cultured at different effector-to-target ratios (E: T) with luciferase^+ JeKo-1 cells. At 48 hours, cell killing was assessed by luminescence relative to controls. ****p<0.0001, one-way ANOVA. […] At 48 hours, cytotoxicity was determined by flow cytometry. ***p=0.0001, 26 one-way ANOVA. FIG. 5D is a graph plotting CART19 cytotoxicity assay against leukemic B cells derived from CLL patients. CART19 were co-cultured at different E:T ratios with leukemic B cells derived from CLL patients. 48 hours after the co-culture, cytotoxicity was determined by flow 29 cytometry. ****p<0.0001, one-way ANOVA.
# In brief, luciferase^+ JeKo-1 (CD19^+) or luciferase+Molm-13 (CD19^−) cells were used as target cells. CART19 cells were co-cultured with target cells at the indicated effector: target (E:T) ratios in TCM. […] Each assay also included control UTDs generated from the same donor and expanded under the same conditions, and a negative control target cell line. Killing was calculated by bioluminescence imaging on a Xenogen IVIS-200 Spectrum (PerkinElmer; Hopkinton, MA) at 24, 48, and 72 hours.
# CART19 cells [3] = assay: CART19 helper T cell (Th1/Th2) phenotype by flow cytometry after JeKo-1 co-culture; conditions: 10 nM TP-0903, JeKo-1 co-culture, 5 days
# Axl = conditions: B cell malignancies, lower dose levels (Sinha et al. 2015); cited from earlier work
# CART19 cells [4] = assay: In vitro CART19 proliferation assay in co-culture with JeKo-1
# [5] = system: T cells stimulated with PMA and ionomycin; conditions: PMA 50 ng/mL + ionomycin 1 μg/mL, 4 hours, TP-0903 10 to 30 nM
# JeKo-1 = JeKo-1 xenograft NSG mouse relapse model; type: in vivo, mice; conditions: TP-0903 20 mg/kg/day p.o. alone
# M2-type macrophages = assay: M2 macrophage polarization and number in co-culture by flow cytometry
# [6] = CART19 + JeKo-1 in the presence of TP-0903
smiles,measurement,setting,value
"CN1CCN(Cc2ccc(Nc3ncc(Cl)c(Nc4ccccc4S(=O)(=O)N(C)C)n3)cc2)CC1 [TP-0903, Dubermatinib]",secreted IL-5,"CART19 cells [1]; CART19 + JeKo-1, 3 days, in the presence of TP-0903",significantly downregulated
same,secreted IL-8,CART19 cells [1]; [6],reduction
same,secreted IP-10,CART19 cells [1]; [6],reduction
same,secreted sCD40L,CART19 cells [1]; [6],reduction
same,IL-1 receptor α,monocytes,significant reductions
same,IL-1β,monocytes,significant reductions
same,IL-6,monocytes,significant reductions
same,IL-17A,monocytes,significant reductions
same,phosphorylation of GATA-3,[2],no changes
same,phosphorylation of JNK,[2],no changes
same,phosphorylation of LCK,[2],no changes
same,phosphorylation of T-bet,[2],no changes
same,phosphorylation of p38,[2],no changes
same,killing of tumor cells (direct anti-tumor activity),CD19+ JeKo-1 cells,direct anti-tumor activity
same,Th2 cells among CART19 cells,CART19 cells [3],reduction
same,inhibition of Axl phosphorylation,Axl,potent inhibition
same,CD8+ CAR T cell proliferation,"CART19 cells [4]; 10 nM TP-0903, JeKo-1 at 1:5, 5 days",superior
same,CART19 cell expansion,"CART19 cells [4]; 10 nM TP-0903, JeKo-1 co-culture, 5 days",improved
same,IFN-γ production,[5],preserved
same,IL-2 production,[5],preserved
same,antitumor activity of monotherapy,JeKo-1,did not have any significant antitumor activity
same,"M2 polarization (CD206, CD163 on CD14+ cells)",M2-type macrophages,prevents M2 polarization
